{
  "source": "PubChem BioAssay AID651791",
  "about": "(National Center for Advancing Translational Sciences (NCATS), 2012)",
  "note": "Inconclusive results, whose numbers are uncertain, are shown with a selection of clear calls. No potency is given beside an inconclusive call; the fits are too rough. Calls of active or inactive are those of the source. Calls follow the shape of the dose curve; as a rule, active = well fitted inhibition curve with a large enough effect; inconclusive = small, poorly fitted or top-dose-only effect; inactive = no such curve, though single readings can be large or run the other way. Potency is read from the fitted curve at half-maximal effect; tags tell the direction and shape of the fitted curve.",
  "data": [
    {"assay": "InCell qHTS Assay for Inhibitors of the mTORC1 Signaling Pathway in MEF (Tsc2-/-, p53-/-) Cells: Hit Validation;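 also: phospho-S6 Ser235/236 signal normalized to propidium iodide cell count per well; nearly all actives have a fitted effect of over 75% in size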", "details": "phospho-rpS6 immunofluorescence, 24 h", "values": [
      {"smiles": "CCOc1ccc(N(Cc2ccccc2)C(=O)c2nc(S(C)(=O)=O)ncc2Cl)cc1", "Potency": "active: 2.93 µM"},
      {"smiles": "COc1ccccc1-c1cc(C(F)(F)F)nc(S(=O)(=O)CCCC(=O)Nc2ccccc2F)n1", "Potency": "inconclusive [inhibitor, single point]"},
      {"smiles": "Cc1ccccc1OCC(O)Cn1c(=N)n(CCN2CCCCC2)c2ccccc21", "note": "(centres undefined)", "Potency": "inconclusive [inhibitor, single point]"},
      {"smiles": "CCOC(=O)c1c(NC(=O)c2ccc(S(=O)(=O)N(CCOC)CCOC)cc2)sc2c1CC(C)(C)NC2(C)C", "Potency": "inconclusive [inhibitor, single point]"},
      {"smiles": "Cc1cc(C)c2oc(-c3cccc(NC(=O)COc4ccc([N+](=O)[O-])cc4)c3)nc2c1", "Potency": "inconclusive [inhibitor, single point]"},
      {"smiles": "Cc1cccc(NC(=O)Cn2nc(-c3ccc(Cl)cc3)c3ccccc3c2=O)c1", "Potency": "inconclusive [inhibitor, single point]"},
      {"smiles": "CC(C)c1ccc(NC(=O)C2CCCN(S(=O)(=O)c3ccc4[nH]c(=O)ccc4c3)C2)cc1", "note": "(centres undefined)", "Potency": "inconclusive [inhibitor, single point]"},
      {"smiles": "COc1ccc(N(Cc2ccccc2)C(=O)c2nc(S(C)(=O)=O)ncc2Cl)cc1", "Potency": "active: 3.69 µM"},
      {"smiles": "Oc1ccc(NCc2ccccc2OCc2ccccc2Cl)cc1", "Potency": "inconclusive [inhibitor, single point]"},
      {"smiles": "CCOC(=O)c1ccc(NC(=O)c2nc(S(=O)(=O)Cc3ccccc3)ncc2Cl)cc1", "Potency": "active: 4.14 µM"},
      {"smiles": "CCOc1ccccc1NC(=O)c1c(NCc2sccc2C)sc2c1CCC(C)C2", "note": "(centres undefined)", "Potency": "inconclusive [inhibitor, single point]"},
      {"smiles": "CCOC(=O)c1ccc(N2C(=O)c3n[nH]c(-c4ccco4)c3C2c2ccc(OCC)cc2)cc1", "note": "(centres undefined)", "Potency": "inconclusive [inhibitor, single point]"},
      {"smiles": "CCOc1ccc(C(=O)Nc2ccc3nc4c(c(Nc5ccccc5OC)c3c2)CCCC4)cc1", "Potency": "inconclusive [inhibitor, single point]"},
      {"smiles": "CCn1c2ccccc2c2cc(CN3CCN(Cc4ccc(Cl)cc4)CC3)ccc21", "Potency": "inconclusive [inhibitor, single point]"},
      {"smiles": "CCCCN(CC)CCCNC(=O)C1CCN(c2nc3ccc(CC)cc3s2)CC1", "Potency": "inconclusive [inhibitor, single point]"},
      {"smiles": "CCOC(=O)c1c(-c2ccccc2)oc2ccc(NS(=O)(=O)c3ccc(OC)cc3)cc12", "Potency": "inconclusive [inhibitor, partial curve]"},
      {"smiles": "COc1ccc(-c2cc(C(F)(F)F)nc(S(C)(=O)=O)n2)cc1", "Potency": "inconclusive [inhibitor, single point]"},
      {"smiles": "CCN1CCOC(=O)C1CC(=O)Nc1cccc(OC)c1", "note": "(centres undefined)", "Potency": "inconclusive [inhibitor, single point]"},
      {"smiles": "COc1ccccc1N1CCN(Cc2cc(COC(C)C)c3cccnc3c2O)CC1", "Potency": "inconclusive [inhibitor, full curve]"},
      {"smiles": "COc1ccc(C2Sc3ccccc3NC3=C2C(=O)c2ccccc23)c(OC)c1OC", "note": "(centres undefined)", "Potency": "inconclusive [inhibitor, full curve, poor fit]"},
      {"smiles": "COc1ccccc1Cn1cc(C(=O)c2ccc(Cl)cc2)c(=O)c2ccccc21", "Potency": "inconclusive [inhibitor, single point]"},
      {"smiles": "O=C(CCOc1ccccc1)N(Cc1cccnc1)c1nc2c(F)cc(F)cc2s1", "Potency": "inconclusive [inhibitor, single point]"},
      {"smiles": "Cc1cccc(-n2nnnc2S(C)(=O)=O)c1", "Potency": "active: 3.29 µM"},
      {"smiles": "O=C(Cn1cc(S(=O)(=O)Cc2cccc(Cl)c2)c2ccccc21)Nc1ccccc1C(F)(F)F", "Potency": "inconclusive [inhibitor, single point]"}
    ]}
  ]
}
